Measured values as given in the supplement of paper PMC10369915.
This is one part of the list. Rule as the data show it: active = 3.2 or more and inactive = the rest. Only a few entries rise above the background.

B1: OR4C12_Y285 (peptide)
chain: LNPVVYTLRNA
B2: OR8H2_Y123_H120Y (peptide)
chain: MAYDRYAAICS
B3: OR2B11_Y127_I130S (peptide)
chain: MALDRYVASCK
B4: OR10C1_Y251_L255I (peptide)
chain: MVSLFYGTAIF
B5: OR6K6_Y160 (peptide)
chain: CNPLRYPTIMI
B6: OTC_Y223_P225R (peptide)
chain: ATPKGYERDAS
B7: OR5R1_Y290 (peptide)
chain: LNPLIYSLRNK
B8: OTC_Y223_P225T (peptide)
chain: ATPKGYETDAS
B9: OSMR_Y689 (peptide)
chain: SECCKYKIDNP
B10: OPA1_Y498_V502G (peptide)
chain: MKALGYFAVGT
B11: OTC_Y317_R320L (peptide)
chain: DDEVFYSPLSL
B12: ORM1_Y175_V174M (peptide)
chain: KSDVMYTDWKK
B13: OR2A5_Y123_I126V (peptide)
chain: MSYDRYMAVCH
B14: OR10C1_Y258 (peptide)
chain: TALFIYIRPKA
B15: OR8D4_Y123_C120Y_YF (peptide)
chain: MAFDRYVAICS
B16: OTC_Y223_P220A (peptide)
chain: ATAKGYEPDAS
B17: OR52J3_Y125 (peptide)
chain: MAFDRYVAVCA
B18: OR51B6_Y130_T131I (peptide)
chain: RSPLRYISILT
B19: ORM1_Y175 (peptide)
chain: KSDVVYTDWKK
B20: OR4C12_Y71 (peptide)
chain: LIDTVYSSSSA
B21: OR5R1_Y290_I289F (peptide)
chain: LNPLFYSLRNK
B22: OR1A1_Y288_P285S (peptide)
chain: LNSFIYSLRNR
B23: OPA1_Y582 (peptide)
chain: EWKNNYPRLRE
B24: OR8D4_Y132 (peptide)
chain: CSPLLYRVIMS
B25: OPA1_Y268_D273A (peptide)
chain: SLIDMYSEVLA
B26: OR10C1_Y258_L255I (peptide)
chain: TAIFIYIRPKA
B27: OR8H2_Y123 (peptide)
chain: MAHDRYAAICS
B28: OR1A2_Y288_W293C (peptide)
chain: LNPFIYSLRNC
B29: OPRK1_Y369_D374N (peptide)
chain: VQDPAYLRDIN
B30: OR2A5_Y123_YF (peptide)
chain: MSFDRYMAICH
B31: OPA1_Y268_L272P (peptide)
chain: SLIDMYSEVPD
B32: OR4C46_Y285 (peptide)
chain: LNPLIYTLKNA
B33: OSCP1_Y237 (peptide)
chain: KHGGNYVPAPK
B34: OR51B6_Y130_R125H (peptide)
chain: HSPLRYTSILT
B35: OPA1_Y268 (peptide)
chain: SLIDMYSEVLD
B36: OPA1_Y582_Y582C (peptide)
chain: EWKNNCPRLRE
B37: OTC_Y223_P225L (peptide)
chain: ATPKGYELDAS

Columns and labels:
Assay in all cases: enrichment score (SH2-bound / input frequency) (ratio); bacterial display of known human phosphotyrosine sites (pTyr-Var adds point mutants) read by sequencing; higher = stronger binding; tyrosines were phosphorylated by kinases first
Details in all cases: peptide library: pTyr-Var
SHP2 C-SH2 domain E139D = target: SHP2 C-SH2 domain E139D
[1] = target: SHP2 C-SH2 domain wild-type
SHP2 N-SH2 domain L43F = target: SHP2 N-SH2 domain L43F
SHP2 N-SH2 domain T42A = target: SHP2 N-SH2 domain T42A
SHP2 N-SH2 domain T52S = target: SHP2 N-SH2 domain T52S
[2] = target: SHP2 N-SH2 domain wild-type
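Also: displayed peptides selected on beads carrying the immobilized SH2 domain, with library peptides lacking any tyrosine serving as negative controls.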

Binder | enrichment score (SHP2 C-SH2 domain E139D) | enrichment score [1] | enrichment score (SHP2 N-SH2 domain L43F) | enrichment score (SHP2 N-SH2 domain T42A) | enrichment score (SHP2 N-SH2 domain T52S) | enrichment score [2]
B1 | inactive: 1.63 | inactive: 1.3 | active: 6.04 | inactive: 1.66 | active: 6.75 | inactive: 2.12
B2 | inactive: 0.664 | inactive: 1.12 | inactive: 0.746 | inactive: 0.627 | inactive: 0.745 | inactive: 0.999
B3 | inactive: 0.949 | inactive: 0.968 | inactive: 1.02 | inactive: 0.837 | inactive: 0.933 | inactive: 1.17
B4 | inactive: 0.501 | inactive: 0.967 | inactive: 0.843 | inactive: 0.699 | inactive: 0.722 | inactive: 1.67
B5 | inactive: 0.908 | inactive: 0.81 | inactive: 0.697 | inactive: 1.17 | inactive: 0.877 | inactive: 0.849
B6 | inactive: 0.534 | inactive: 0.567 | inactive: 0.464 | inactive: 0.534 | inactive: 0.499 | inactive: 0.488
B7 | inactive: 0.966 | inactive: 0.636 | inactive: 2.73 | inactive: 0.925 | active: 3.32 | inactive: 0.725
B8 | inactive: 0.45 | inactive: 0.378 | inactive: 0.485 | inactive: 0.462 | inactive: 0.536 | inactive: 0.705
B9 | inactive: 0.939 | inactive: 0.712 | inactive: 0.878 | inactive: 0.859 | inactive: 1.16 | inactive: 1.11
B10 | inactive: 1.2 | inactive: 1.26 | inactive: 0.992 | inactive: 0.87 | inactive: 0.802 | inactive: 1.04
B11 | inactive: 0.61 | inactive: 0.724 | inactive: 0.878 | inactive: 0.881 | inactive: 0.735 | inactive: 0.718
B12 | inactive: 0.701 | inactive: 0.631 | inactive: 0.569 | inactive: 0.768 | inactive: 0.54 | inactive: 0.623
B13 | inactive: 0.693 | inactive: 0.892 | inactive: 0.651 | inactive: 0.708 | inactive: 0.835 | inactive: 0.834
B14 | inactive: 0.504 | inactive: 0.501 | inactive: 0.575 | inactive: 0.491 | inactive: 0.491 | inactive: 0.362
B15 | inactive: 1.04 | inactive: 0.884 | inactive: 0.701 | inactive: 0.646 | inactive: 0.97 | inactive: 0.767
B16 | inactive: 0.605 | inactive: 0.432 | inactive: 0.545 | inactive: 0.388 | inactive: 0.837 | inactive: 0.543
B17 | inactive: 0.998 | inactive: 1.11 | inactive: 1.01 | inactive: 1.31 | inactive: 1.15 | inactive: 1.17
B18 | inactive: 1.96 | inactive: 2.08 | active: 4.96 | active: 5.25 | active: 5.8 | inactive: 2.66
B19 | inactive: 0.8 | inactive: 0.842 | inactive: 0.698 | inactive: 0.802 | inactive: 0.811 | inactive: 0.96

Binder | enrichment score (SHP2 C-SH2 domain E139D) | enrichment score [1] | enrichment score (SHP2 N-SH2 domain L43F) | enrichment score (SHP2 N-SH2 domain T42A) | enrichment score (SHP2 N-SH2 domain T52S) | enrichment score [2]
B20 | inactive: 0.903 | inactive: 1.04 | inactive: 0.838 | inactive: 0.785 | inactive: 0.982 | inactive: 0.813
B21 | inactive: 0.798 | inactive: 0.692 | inactive: 1.04 | inactive: 0.663 | inactive: 0.663 | inactive: 0.685
B22 | inactive: 0.346 | inactive: 0.391 | inactive: 0.577 | inactive: 0.47 | inactive: 0.58 | inactive: 0.596
B23 | inactive: 0.816 | inactive: 0.745 | inactive: 0.84 | inactive: 0.544 | inactive: 0.846 | inactive: 0.809
B24 | inactive: 0.796 | inactive: 0.87 | inactive: 0.64 | inactive: 0.654 | inactive: 0.767 | inactive: 0.934
B25 | inactive: 0.925 | inactive: 0.735 | inactive: 0.856 | inactive: 0.761 | inactive: 1.01 | inactive: 0.947
B26 | inactive: 0.514 | inactive: 0.355 | inactive: 0.446 | inactive: 0.517 | inactive: 0.492 | inactive: 0.356
B27 | inactive: 0.81 | inactive: 0.622 | inactive: 0.646 | inactive: 0.692 | inactive: 0.555 | inactive: 0.436
B28 | inactive: 0.937 | inactive: 1.41 | inactive: 1.32 | inactive: 0.798 | inactive: 1.67 | inactive: 1.17
B29 | inactive: 0.71 | inactive: 0.767 | inactive: 0.735 | inactive: 0.724 | inactive: 0.659 | inactive: 0.901
B30 | inactive: 0.885 | inactive: 0.897 | inactive: 0.777 | inactive: 0.894 | inactive: 0.75 | inactive: 1.04
B31 | inactive: 0.592 | inactive: 0.627 | inactive: 0.724 | inactive: 0.605 | inactive: 0.732 | inactive: 0.639
B32 | inactive: 0.782 | inactive: 0.588 | active: 3.66 | inactive: 0.647 | active: 3.71 | inactive: 1.29
B33 | inactive: 1.18 | inactive: 1.08 | inactive: 1.26 | inactive: 1.31 | inactive: 1.24 | inactive: 1.07
B34 | inactive: 1.95 | inactive: 3.13 | active: 4.83 | active: 8.32 | active: 6.38 | inactive: 1.6
B35 | inactive: 0.76 | inactive: 0.881 | inactive: 0.826 | inactive: 0.771 | inactive: 0.706 | inactive: 0.818
B36 | inactive: 0.614 | inactive: 0.667 | inactive: 0.639 | inactive: 0.463 | inactive: 0.631 | inactive: 0.715
B37 | inactive: 0.525 | inactive: 0.848 | inactive: 0.825 | inactive: 0.481 | inactive: 0.717 | inactive: 0.831
